Data on one sequence can be found in the supplement of paper PMC5998384.

Data set [1] has as its system HeLa Kyoto. Kind of data set: solubility in G1/S (NP-40 vs SDS abundance) (log2 ratio); higher = more soluble. The following applies: cell cycle stage: G1/S.
In data set [2] the test system is HeLa Kyoto. Kind of data set: solubility change mitosis vs G1/S (difference of NP-40 vs SDS log2 ratios) (log2 ratio difference); higher = more soluble in mitosis.
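Throughout, for solubility change mitosis vs G1/S (difference of NP-40 vs SDS log2 ratios): synchronized HeLa Kyoto cells (double thymidine block for G1/S, nocodazole release for mitosis), protein amounts in NP-40 versus SDS lysates quantified by mass spectrometry, three biological replicates.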
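Throughout, for solubility in G1/S (NP-40 vs SDS abundance): HeLa Kyoto cells arrested at G1/S by double thymidine block, proteins quantified by TMT10plex mass spectrometry in mild NP-40 versus SDS extracts, three biological replicates.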

Turning to “MCVCQTMEVGQYGKNASRAGDRGVLLEPFIHQVGGHSSMMRYDDHTVCKPLISREQRFYESLPPEMKEFTPEYKGVVSVCFEGDSDGYINLVAYPYVESETVEQDDTTEREQPRRKHSRRSLHRSGSGSDHKEEKASLSLETSESSQEAKSPKVELHSHSEVPFQMLDGNSGLSSEKISHNPWSLRCHKQQLSRMRSESKDRKLYKFLLLENVVHHFKYPCVLDLKMGTRQHGDDASAEKAARQMRKCEQSTSATLGVRVCGMQVYQLDTGHYLCRNKYYGRGLSIEGFRNALYQYLHNGLDLRRDLFEPILSKLRGLKAVLERQASYRFYSSSLLVIYDGKECRAESCLDRRSEMRLKHLDMVLPEVASSCGPSTSPSNTSPEAGPSSQPKVDVRMIDFAHSTFKGFRDDPTVHDGPDRGYVFGLENLISIMEQMRDENQ [IP6K1]”, in data set [1], the “solubility in G1/S (log2)” value is -0.0957. The “solubility change mitosis (log2)” value in data set [2] is -0.0148.
